Experimental data as given in the RNAGym collection of RNA variant scans (doi:10.1093/nar/gkz1192).
The source gives no read counts; variants with many changes may rest on few reads.

B1: CPEB3 Ribozyme (parent)
chain: UAACAGGGGGCCACAGCAGAAGCGUUCACGUCGCAGCCCCUGUCAGAUUCUGGUGAAUCUGCGAAUUCUGCUGUAUAUCUC

Variants of: B1
Assay: self-cleavage, relative activity (ratio to wild type); higher = more cleavage; in vitro, sequencing
Procedure, shortened: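 Relative activity was defined as the cleaved/total read fraction for a variant divided by the same fraction for the unmutated ribozyme. CPEB3 self-cleaving ribozyme libraries were made by rounds of error-prone PCR, barcoded, and transcribed in vitro with T7 RNA polymerase for 5 hours at 37°C, and cleavage ran through transcription plus a 15 min DNase I step before EDTA. Illumina sequencing of template-switched reverse transcripts gave the reads, and DNA sequencing mapped the barcodes. Averages come from three batches, using variants with at least 5 reads.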

Variant | self-cleavage
A57G U69C A75U | 0.45
A57G U69C U72A U80C | 0.55
A57G U69C U72C U78A | 0.33
A57G U69C U80A | 0.45
A57G U69G U72A | 0.46
A57G U72A U76C | 0.64
A57G U72C A75G | 1.19
A57G U72C C81U | 1.25
A57G U72C U80A | 0.43
A57G U72C U80C | 1.25
A57G U74C U78C | 0.92
A57G U74C U80C | 0.99
A57G U74G A75G | 1.13
A57G U76G A77G | 0.59
A57U C62U A64G U67C U80C | 0.14
A57U U60C U78C U80C | 0.09
A57U U60G U67C | 0.16
A57U U67A C81A | 0.21
A57U U67C G70U U72C | 0.18
A57U U69C U80A | 0.17
A57U U78C U80A | 0.93
U58A A65G U72C | 0.4
U58A C59A U72A U80G | 0.29
U58A C59U U72C | 0.31

Variant | self-cleavage
U58A U60A U80A | 0.29
U58A U66A U67A A77G | 0.11
U58A U66C U72C U80C | 0.16
U58A U67C C71U | 0.21
U58A U67C U69C U72A | 0.18
U58A U74A A77U U78A | 0.96
U58A U78A U80A | 0.31
U58C A64G C81A | 0.38
U58C A64G U66C U74C | 0.28
U58C A64G U69C U78C | 0.17
U58C A64G U74C | 0.48
U58C A64G U80A | 0.31
U58C A64U A75G | 0.17
U58C A65G U69A | 0.35
U58C A75U U80C | 0.88
U58C C59U U67C | 0.21
U58C C62G U72G | 0.27
U58C C62G U80A | 0.11
U58C C62U U67A C71U | 0.27
U58C G61A U67A C68A | 0.23
U58C U60A A77G | 0.41
U58C U60A A77G U80C | 0.18
U58C U60A U66C C68U U69A C71U U80C | 0.38
U58C U60A U69C C71U | 0.48

Variant | self-cleavage
U58C U60A U74G | 0.15
U58C U60C U67A U69A | 0.2
U58C U60C U72C | 0.41
U58C U60C U74C | 0.23
U58C U60G U66C | 0.18
U58C U66C A75G | 0.17
U58C U67C U80C | 0.13
U58C U69A U72C | 0.21
U58C U72A A77G | 0.5
U58C U72C U76C | 0.81
U58C U74A U80C | 0.92
U58C U74C U80A | 1.13
U58G U60C U67C | 0.18
U58G U78C U80C | 0.1
C59G C71A U72A A77G | 0.12
C59G U60C U66C U72A | 0.14
C59U C71G U76A | 0.18
C59U U60A G61A U67C U78C | 0.14
C59U U60C U66C U67C U69C | 0.23
C59U U66C U74C | 0.62
C59U U67C A77G U80A | 0.19
C59U U67C U78G C81A | 0.47
U60A A64G A65G U69C | 0.39
U60A A64G U69A | 0.23

Variant | self-cleavage
U60A A64G U69C | 0.36
U60A A64G U80C | 0.4
U60A A64U U67A | 0.1
U60A A65C U72A | 0.25
U60A A65G U80C | 0.31
U60A A75G U80A | 0.33
U60A C62A U76A | 0.31
U60A C62G A64U | 0.26
U60A C62G A64U U66C | 0.3
U60A C71G U78A | 0.26
U60A C71U U78C | 0.38
U60A G63A U67C U69C | 0.36
U60A G63C G70A | 0.38
U60A G63U A65G U78C | 0.29
U60A U66C U80A | 0.32
U60A U67C U76C | 0.39
U60A U69A U78A | 0.28
U60A U69C U72C | 0.27
U60A U69C U72G | 0.32
U60A U72C A77G | 0.85
U60A U72C A77U U78C | 0.59
U60A U72G U78C | 0.71
U60C A64G U66C | 0.3
U60C A64G U67A | 0.36

Variant | self-cleavage
U60C A64G U72A | 0.26
U60C A64G U74C A77G | 0.71
U60C A64G U80C | 0.19
U60C A64U U66A | 0.22
U60C A64U U67C U69C | 0.54
U60C A65G A75G | 0.21
U60C A65G U66C U69A | 0.15
U60C A65G U66G U74C | 0.41
U60C A65G U67C | 0.21
U60C A65G U72A A75G | 0.18
U60C A65G U78C U80C | 0.18
U60C A65G U80C | 0.37
U60C A75U U78C | 0.75
U60C A77G U80C | 0.45
U60C C62G C68G | 0.37
U60C C68U C79A | 0.65
U60C C79U U80C | 0.29
U60C G61A C71A | 0.14
U60C U66A U72C | 0.18
U60C U66C A77U U80A | 0.29
U60C U66C U72A | 0.29
U60C U66G U72C | 0.16
U60C U67A A75U | 0.29
U60C U67C U78A | 0.21

Variant | self-cleavage
U60C U69A A77U | 0.41
U60C U69A U74C U78C | 0.42
U60C U69C C79U | 0.37
U60C U72A A77G | 0.51
U60C U72C U74C | 0.46
U60G A64G U72C | 0.21
U60G U66G U80C | 0.22
U60G U72C U78C | 0.25
G61A C71U U72C | 0.11
G61A U72C A77U | 0.99
G61C A64G U80A | 0.21
G61C G63U U78C | 0.29
C62A A64G U76C | 0.11
C62A G73A U74A | 0.25
C62G A64G U67G | 0.21
C62G A77G U80G | 0.13
C62G U74C U78C | 0.21
C62U A64U U69C | 0.31
C62U A65G U69C | 0.3
C62U G70A C79U | 0.3
C62U U67A U76C | 0.25
C62U U69C U72A | 0.23
C62U U74C U76C | 0.45
G63A A64C A77U | 0.16

Variant | self-cleavage
G63A A64U U72G | 0.39
G63A A65G U66C | 0.3
G63A U67C U72A | 0.22
G63A U69A U78C | 0.58
G63A U69C U72C | 0.26
G63C A64G U67C U69C U78A | 0.13
G63C A65U U69A | 0.27
G63C U69A U74A | 0.71
G63U A64G U80C | 0.93
G63U A65U U69C | 0.29
G63U U66C U80C | 0.49
A64C C71G U78C | 0.29
A64C U69C G70U | 0.37
A64C U69C U72A | 0.23
A64C U72A U78C | 0.27
A64G A65C U66C | 0.27
A64G A65G A77U U80C | 0.21
A64G A65G C68A | 0.21
A64G A65G U66A | 0.2
A64G A65G U66C | 0.2
A64G A65G U67C | 0.21
A64G A65G U78C | 0.18
A64G A75G C79A | 1.01
